Molecules are shown by their SMILES. Among all 52,000 compounds or so, about 4,300 (8.3%) were called active. Cut-off read from the data, not from the text of the source: active = survival mostly below about 52% (no sharp cut-off); inactive = mostly above about 56%. The list shows a part of the results.

The assay concerns DeltatarO mutant. Kind of assay: growth inhibition of S. aureus wild type versus tarO mutant, primary screen, teichoic acid synthesis inhibitors, RN4220, OD600 (AID 463173). The settings on record: OD600, 18 h, active compounds read low, screened at 18.75 µg/mL (by protocol).
Turning to `Clc1ccccc1C(c1nnnn1Cc1ccco1)N1CCN(Cc2ccco2)CC1` (stereo not given), the survival was inactive: 94%.
Then `Cc1ccccc1CN1C(=O)c2ccccc2S(=O)c2ccc(C(=O)NCc3ccco3)cc21` (stereo not given), with inactive: 71%.
Then `Cc1[nH]c2ccc(C(=O)Nc3ccc(F)cc3)cc2c1C`, with inactive: 125%; and `CCN(C(=O)CCS(=O)(=O)c1ccc2c(c1)oc(=O)n2C)c1ccc(OC)cc1`, with inactive: 75%.
Then `Cc1ccc(NC(=O)CSc2nc3c(c(=O)[nH]2)CCC3)cc1Cl`, with inactive: 70%; and `O=S(=O)(c1ccc(Br)cc1)c1nc(-c2cccs2)oc1SCc1ccc(F)cc1`, with inactive: 71%.
Take `Cc1ccc(-c2nc(CN(C)C)cc(CN(C)C)c2O)cc1`: the survival was inactive: 85%.
To `CCS(=O)(=O)N1CCC2(CC1)OC(=O)C(C)=C2C(=O)NCc1cccc(Cl)c1` belongs inactive: 58%; to `Cn1c(=O)c2ccccc2n(CC(N)=O)c1=O`, inactive: 110%; to `CC(C)(C)c1ccc(C(=O)Nc2ccc(C(=O)OCc3cc(=O)n4ccsc4n3)cc2)cc1`, inactive: 96%.
Then `CCC1CCCCN1CCCNC(=O)c1cn(CC)c2ccc(S(=O)(=O)N(C)C3CCCCC3)cc2c1=O` (stereo not given), with inactive: 94%; and `CCc1ccc(C(c2c(C)[nH][nH]c2=O)C(C#N)C#N)cc1` (stereo not given), with inactive: 91%.
Then `COc1ccccc1C(=O)Nc1c(C(=O)N2CCN(c3ccccc3F)CC2)oc2ccccc12`, with inactive: 92%; and `COc1ccc(NC(=O)CCCSc2nc(-c3ccco3)cc(C(F)(F)F)n2)cc1`, with inactive: 55%; and `Cc1cc2c(cc1S(=O)(=O)NCc1ccccc1)OCC(=O)N2`, with inactive: 91%.
Turning to `O=C(c1ccccc1)c1ccc2nc(N3CCN(c4ccccc4)CC3)c3nncn3c2c1`, the survival was inactive: 92%.
To `CCN(CC)S(=O)(=O)c1ccc(-c2nnc(SCC(=O)N3CCCC3)n2CC)cc1` belongs inactive: 103%; to `CN(C)c1cccc(C(=O)Nc2nc3ccc(S(=O)(=O)NC(C)(C)C)cc3s2)c1`, active: 47%.
Then `Cc1ccc(CNC(=O)c2ccc3c(c2)NC(=O)C(CS(=O)(=O)Cc2ccc(F)cc2)N3)cc1` (stereo not given), with inactive: 77%; and `CN(C)N=Nc1ccc(Oc2ccccc2)cc1`, with inactive: 116%.
Then `CCCCC(=O)Nc1cc(-c2nc3cccnc3s2)ccc1C`, with active: 35%; and `CCOc1ccc(NC(=O)CSc2ncnc3c2sc2ccccc23)cc1`, with inactive: 94%.
Regarding `COc1ccc(C(=O)n2nc(-c3ccc(Cl)cc3)nc2NCc2ccco2)cc1`, the survival was inactive: 115%.
`CCc1ccc(NC(=O)c2cc3c(COC(C)=O)cnc(C)c3oc2=O)cc1`: the survival was inactive: 108%.
To `Cc1cc(C)cc(Nc2nc3ccccc3nc2-n2nc(C)cc2C)c1` belongs active: 23%.
Then `CCOC(=O)N1CCc2c(sc3c2c(=O)n(Cc2ccccc2)c(=O)n3CC(=O)Nc2cccc(C)c2)C1`, with inactive: 84%.
Then `COc1ccc(-c2cn3c(n2)sc2cc(C(=O)Nc4c(C)cccc4C)ccc23)cc1`, with inactive: 49%.
Take `Cc1cc2cc3c(cc2nc1SCC(=O)N1CCCC1)OCCO3`: the survival is inactive: 54%.
Then `Cc1ccc(CNC(=O)C2(c3cccs3)CCOCC2)cc1`, with inactive: 94%; and `Cn1c(=O)n(C)c2cc(/C=N/NC(N)=S)ccc21`, with inactive: 98%; and `CCCN1CCN(CCCNC(=O)C(CC)n2nc(C)n3c(cc4occc43)c2=O)CC1` (stereo not given), with inactive: 86%.
Consider `Cc1coc2cc3oc(=O)c(CCC(=O)NCc4ccccc4Cl)c(C)c3cc12`, for which the survival is inactive: 66%.
Consider `O=C(NCC(c1cccnc1)N1CCN(Cc2ccccc2)CC1)C(=O)Nc1cccc(Cl)c1` (stereo not given), for which the survival was inactive: 77%.
Turning to `O=C(O)c1cccc(-n2cnc3cccnc32)c1`, the survival is inactive: 100%.
`CCOc1ccc(-c2nc(CSCC(=O)NCc3ccc(C)cc3)c(C)o2)cc1`: the survival was inactive: 78%.
To `COC(=O)c1cc(NC(=O)c2sc3ccccc3c2Cl)cc(C(=O)OC)c1` belongs inactive: 52%; to `COc1ccc(CCNc2nc3cc(OC)c(OC)cc3c3nc(-c4ccccc4)nn23)cc1OC`, inactive: 93%.
To `COC(=O)c1cc2occc2n1CC(=O)Nc1ccc(C)cc1Cl` belongs inactive: 111%; to `Cc1cc(N)cc(C(=O)O)c1O`, inactive: 104%.
On to `O=C(C(F)F)N1CCN(c2ccccc2)CC1`, for which the survival is inactive: 71%.
As for `COc1ccc(-c2nn(-c3ccc(C)cc3)c3c2cnc2ccc(C)cc23)cc1OC`, the survival was inactive: 76%.
Then `Cc1ccc(C)c(-n2nnc(-c3nc(-c4ccccc4C)no3)c2C)c1`, with inactive: 86%.
For the molecule `CC(NC(=O)c1ccco1)c1nc(-c2ccccc2)no1` (stereo not given), the survival was inactive: 85%.
To `Cc1cc(=O)n(CC(=O)NC(C)c2ccccc2)c2c1c(C)nn2-c1cccc(F)c1` (stereo not given) belongs inactive: 107%.
To `CCN1C(=O)c2ccccc2S(=O)(=O)c2ccc(C(=O)NCc3ccc(OC)cc3)cc21` belongs inactive: 70%; to `O=C(CN(C(=O)c1ccc(Cl)nc1)C1CCCC1)NCc1ccc2c(c1)OCO2`, inactive: 87%; to `CCC(C(=O)NC1CCCCC1)n1c(SCc2cccc(C)c2)nc2ccncc21` (stereo not given), inactive: 74%.
To `CC(C)n1nnnc1SCC(=O)NCc1ccco1` belongs inactive: 94%.
Consider `Cn1c(C(=O)N2CCC(C(=O)NCCc3ccccc3)CC2)cc2sccc21`, for which the survival was inactive: 81%.
To `N#Cc1ccccc1CSc1nnc2ccc3ccccc3n12` belongs inactive: 59%; to `COCc1c(Br)c(C)nc2sc3c(=O)n(-c4cccc(Br)c4)nnc3c12`, inactive: 77%; to `CN(C(=S)SCC1=CCS(=O)(=O)C1)C1CCS(=O)(=O)C1` (stereo not given), inactive: 94%.
Then `O=C(CC1Nc2ccccc2NC1=O)Nc1ccccc1C(F)(F)F` (stereo not given), with inactive: 93%; and `COCCNC(=O)Cn1c(=O)c2cccn2c2ccc(F)cc21`, with inactive: 86%.
For the molecule `O=C(CN(c1ccc(Cl)c(C(F)(F)F)c1)S(=O)(=O)c1ccccc1)Nc1cccnc1`, the survival is active: 47%.
For `CCc1ccccc1NC(=O)CSc1nnc(-c2ccccc2)c(-c2ccccc2)n1`, the survival was inactive: 88%.
For `CC/C(=N/NC(=O)C1C2CCCCC21)c1ccc(O)cc1` (stereo not given), the survival was inactive: 95%.
To `COc1cc(OC)cc(-c2cc3nc(C)c(CCC(=O)Nc4ccccc4OC)c(C)n3n2)c1` belongs inactive: 52%; to `O=S(=O)(NCC(c1ccco1)N1CCN(c2ccccc2)CC1)c1ccccc1` (stereo not given), inactive: 91%; to `CCCN(C(=O)c1c(C)oc2ncnc(N3CCOCC3)c12)c1ccc(Cl)c(Cl)c1`, inactive: 46%.
Then `CCOc1ccc(Cn2nnc(C(=O)Nc3ccc(Cl)cc3)c2N)cc1`, with inactive: 88%; and `CN(C1CCCCC1)S(=O)(=O)c1ccc2c(c1)c(=O)c(C(=O)NCc1ccc(F)cc1)cn2C`, with inactive: 92%; and `COc1ccccc1CNC(=O)C1CCN(C(=O)c2sccc2-n2cccc2)CC1`, with inactive: 81%.
As to `CCn1ccc2c(OCC(=O)Nc3ccc(C(C)=O)cc3)cccc2c1=O`, the survival was inactive: 66%.
To `COc1ccccc1CNC(=O)c1cc2c(-c3ccc(Cl)cc3)nn(C)c2s1` belongs inactive: 122%.
To `CCc1nnc(NC(=O)c2nc(SC)ncc2Cl)s1` belongs inactive: 109%; to `NC(=O)CSc1nc2c(oc3ccccc32)c(=O)n1Cc1ccccc1`, inactive: 71%.
Take `CCSc1oc(-c2cccs2)nc1S(=O)(=O)c1ccc(Br)cc1`: the survival was inactive: 56%.
Consider `Cc1ccccc1C(=O)Nc1c(C(=O)Nc2cccc(F)c2)oc2ccccc12`, for which the survival was active: 46%.
Consider `O=C(NCc1ccc2c(c1)OCO2)c1ccc2c(c1)N(Cc1ccccc1F)C(=O)c1ccccc1S2=O` (stereo not given), for which the survival was inactive: 88%.
On to `COc1ccccc1NC(=O)c1cc2c(C)nn(-c3ccccc3)c2s1`, for which the survival was active: 0%.
To `COc1ccc(N2CCN(C(=O)COCc3cc(-c4ccc5c(c4)OCO5)on3)CC2)cc1` belongs inactive: 92%; to `COc1ccc(NC(=O)c2sc3nc(C(F)(F)F)cc(C)c3c2N)cc1OC`, inactive: 140%; to `Cc1ccc(NC(=O)c2nc(S(C)(=O)=O)ncc2N(Cc2ccco2)Cc2cccs2)cc1C`, active: 40%.
Then `CCN(CC)S(=O)(=O)c1ccc2c(c1)nc(CN(C)C(=O)Nc1ccc(C)c(F)c1)n2C`, with inactive: 77%.
Then `O=C(OCC1CCCO1)c1ccc2c(c1)N(Cc1ccccc1)C(=O)c1ccccc1S2(=O)=O` (stereo not given), with inactive: 89%; and `CCc1ccccc1NC(=O)CN1C(=O)CCSc2ccc(S(=O)(=O)N3CCCC3)cc21`, with inactive: 102%.
`CCOC(=O)C1CCCN(C(=O)Cn2ncc3c4ccccc4n(Cc4ccccc4)c3c2=O)C1` (stereo not given): the survival was inactive: 108%.
For the molecule `CCc1ccccc1NC(=O)C(C)n1c(=O)cc(C)c2c(C)nn(-c3ccccc3)c21` (stereo not given), the survival was inactive: 90%.
To `Cc1ccc(Cn2ccnc2SCC(=O)Nc2nnc(C)s2)cc1` belongs inactive: 55%; to `COc1ccc(OC)c(NC(=O)Nc2c(C)n(C)n(-c3ccccc3)c2=O)c1`, inactive: 88%; to `Cc1cc(C)cc(Oc2nc3ccccn3c(=O)c2/C=C(\C#N)c2nc3ccccc3s2)c1`, inactive: 60%.
Then `O=C(NC1CCN(Cc2ccccc2)CC1)c1ccc(Cn2c(=O)c3ccccc3n(Cc3ccc(F)cc3)c2=O)cc1`, with inactive: 85%; and `Cn1c(=O)cc(SCC(=O)N2CCN(c3ccccc3F)CC2)c2ccc(Cl)cc21`, with inactive: 70%; and `Cc1ccccc1OCCSc1nc2ccc(NC(=O)c3cccs3)cc2s1`, with inactive: 49%.
Then `CCn1nc(-c2ccccc2)c(-c2ccccc2)c(C(=O)Nc2ccc(NC(C)=O)cc2)c1=O`, with inactive: 60%.
With `Cc1ccc(C(=O)NC2(C(F)(F)F)N=C(c3ccccc3)N(Cc3ccccc3)C2=O)cc1` (stereo not given), the survival is inactive: 66%.
To `Cc1ccc(C(=O)Oc2cc(-c3ccc4c(c3)OCO4)cc(=O)c3c(C)oc(C)c23)cc1` belongs inactive: 119%.
Then `Cc1ccc(NC(=O)C2CCN(c3nc(-c4ccc(C(C)C)cc4)no3)CC2)c(Cl)c1`, with inactive: 79%; and `Cc1ccccc1NC(=O)CSc1nc(-c2ccco2)nc2cc(=O)[nH]n12`, with inactive: 87%.

Source of the values: PubChem BioAssay AID463173 (ICCB-Longwood Screening Facility, Harvard Medical School, 2010).
